{"source": "the supplement of paper PMC3334620", "note": "Over roughly 33,000 sequences, “E-score (-0.5 to 0.5)” has its median near -0.012; the highest 2% begin near 0.27. Some of the results follow."}
{"molecular_target": "T1, Vhr1 (UniProt P40522)", "T1 sequence": "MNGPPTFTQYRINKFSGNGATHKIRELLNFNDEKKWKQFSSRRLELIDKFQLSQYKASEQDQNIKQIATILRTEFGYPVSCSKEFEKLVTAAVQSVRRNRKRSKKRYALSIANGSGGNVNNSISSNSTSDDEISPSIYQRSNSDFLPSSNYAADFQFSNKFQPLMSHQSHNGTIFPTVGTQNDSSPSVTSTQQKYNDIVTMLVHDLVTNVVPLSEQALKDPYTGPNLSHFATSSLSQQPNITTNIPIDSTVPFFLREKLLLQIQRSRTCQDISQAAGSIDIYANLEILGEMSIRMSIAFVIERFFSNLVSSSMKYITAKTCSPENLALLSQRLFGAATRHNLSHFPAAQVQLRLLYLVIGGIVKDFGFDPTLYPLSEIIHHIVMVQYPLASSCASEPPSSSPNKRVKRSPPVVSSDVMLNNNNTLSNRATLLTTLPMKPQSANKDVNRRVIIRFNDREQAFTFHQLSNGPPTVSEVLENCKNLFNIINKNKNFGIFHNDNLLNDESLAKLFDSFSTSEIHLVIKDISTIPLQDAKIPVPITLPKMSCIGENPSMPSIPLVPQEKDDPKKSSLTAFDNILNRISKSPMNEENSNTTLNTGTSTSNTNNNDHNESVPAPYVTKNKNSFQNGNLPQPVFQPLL", "experiment": "PBM E-score (8-mer binding enrichment) (E-score (-0.5 to 0.5)); higher = stronger / more preferred TF binding; most listed sequences are background and not binding sites", "settings": "protein concentration: 200 nM; construct: GST-full length", "outline": "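Bound GST-tagged yeast transcription factors, applied at about 100-200 nM to double-stranded universal all-10-mer Agilent arrays, were detected with fluorescent anti-GST. Scans were normalised with masliner. A modified Wilcoxon-Mann-Whitney statistic, the E-score, was assigned to each ungapped eight-base word pooled with its reverse complement by the Universal PBM Analysis Suite.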"}
{"sequence": "GGAACTTA", "PBM E-score": -0.231}
{"sequence": "AAGAGCGT", "PBM E-score": -0.129}
{"sequence": "ATTCACAC", "PBM E-score": 0.157}
{"sequence": "GCTACGCA", "PBM E-score": -0.00533}
{"sequence": "GCGATGCC", "PBM E-score": -0.0391}
{"sequence": "GTGAGCAA", "PBM E-score": -0.019}
{"sequence": "CCTAGGAC", "PBM E-score": -0.256}
{"sequence": "GAGTCAGC", "PBM E-score": 0.476}
{"sequence": "CCCCTCAC", "PBM E-score": 0.17}
{"sequence": "ACAGGGAC", "PBM E-score": -0.138}
{"sequence": "CTCCGTGC", "PBM E-score": 0.0278}
{"sequence": "TAAACCCA", "PBM E-score": 0.112}
{"sequence": "CTTATCGA", "PBM E-score": 0.0185}
{"sequence": "AGCTCCAT", "PBM E-score": -0.0874}
{"sequence": "GGTATATA", "PBM E-score": 0.207}
{"sequence": "ACACTATA", "PBM E-score": 0.152}
{"sequence": "CATGAGGC", "PBM E-score": -0.159}
{"sequence": "GTCTATAA", "PBM E-score": 0.0361}
{"sequence": "ATCAACAG", "PBM E-score": 0.0493}
{"sequence": "AGATAGAA", "PBM E-score": -0.309}
{"sequence": "AGCCCTAC", "PBM E-score": -0.108}
{"sequence": "GTGTTGCA", "PBM E-score": 0.135}
{"sequence": "CAATAGCG", "PBM E-score": 0.148}
{"sequence": "CTATTAAC", "PBM E-score": 0.0176}
{"sequence": "GGGATTAA", "PBM E-score": 0.0145}
{"sequence": "ATAAGGAA", "PBM E-score": -0.167}
{"sequence": "GTCATCTA", "PBM E-score": 0.228}
{"sequence": "GACATGCC", "PBM E-score": 0.0525}
{"sequence": "AGAAATCT", "PBM E-score": -0.217}
{"sequence": "CATCCGAC", "PBM E-score": 0.107}
{"sequence": "ACAGGATG", "PBM E-score": 0.184}
{"sequence": "ACAGGAGA", "PBM E-score": 0.109}
{"sequence": "ACTCCCAG", "PBM E-score": 0.136}
{"sequence": "TGGGAGAA", "PBM E-score": -0.0874}
{"sequence": "ATCAGCCG", "PBM E-score": 0.0961}
{"sequence": "ACATCCGC", "PBM E-score": 0.00591}
{"sequence": "AGAATTCA", "PBM E-score": -0.223}
{"sequence": "CTTCTGGA", "PBM E-score": -0.127}
{"sequence": "AGGGCCAG", "PBM E-score": -0.00285}
{"sequence": "TGCTTCCA", "PBM E-score": -0.349}
{"sequence": "ACTGCAGT", "PBM E-score": 0.0933}
{"sequence": "GGCCTCCC", "PBM E-score": -0.0495}
{"sequence": "ACTCCCAT", "PBM E-score": 0.208}
{"sequence": "ATTGACTG", "PBM E-score": 0.128}
{"sequence": "TTATACAA", "PBM E-score": -0.065}
{"sequence": "ATTTTCGG", "PBM E-score": -0.111}
{"sequence": "CCGGGACG", "PBM E-score": -0.149}
{"sequence": "CATCTCCA", "PBM E-score": 0.0772}
{"sequence": "ACGAACAT", "PBM E-score": 0.0873}
{"sequence": "CGCTGTAA", "PBM E-score": 0.0565}
{"sequence": "ACACATTG", "PBM E-score": 0.169}
{"sequence": "CACCTCTA", "PBM E-score": 0.0402}
{"sequence": "CTGTTAAC", "PBM E-score": -0.0127}
{"sequence": "CCTTACCA", "PBM E-score": -0.0869}
{"sequence": "CCAGCACC", "PBM E-score": -0.15}
{"sequence": "ACTTAAAG", "PBM E-score": -0.293}
{"sequence": "AATGTTAT", "PBM E-score": -0.0251}
{"sequence": "ACCACCCC", "PBM E-score": 0.112}
{"sequence": "CAGGGCCC", "PBM E-score": 0.0132}
{"sequence": "CGTATTTA", "PBM E-score": 0.0935}
{"sequence": "AGGCTACA", "PBM E-score": 0.0844}
{"sequence": "ACTCTCAA", "PBM E-score": -0.173}
{"sequence": "AAGGTTAG", "PBM E-score": -0.205}
{"sequence": "CGATCAGC", "PBM E-score": -0.0243}
{"sequence": "GGCCAGTA", "PBM E-score": 0.0481}
{"sequence": "AGATCCCG", "PBM E-score": 0.297}
{"sequence": "CTACAATC", "PBM E-score": 0.165}
{"sequence": "CCGACAGG", "PBM E-score": 0.125}
{"sequence": "CAATACAG", "PBM E-score": 0.109}
{"sequence": "ATCGCGTG", "PBM E-score": 0.199}
{"sequence": "CTTTGGAA", "PBM E-score": -0.193}
{"sequence": "CGGATATA", "PBM E-score": 0.18}
{"sequence": "CGCTGCTC", "PBM E-score": -0.142}
{"sequence": "CCTTAATC", "PBM E-score": -0.0483}
{"sequence": "AAATTCGC", "PBM E-score": -0.0808}
{"sequence": "TAAACAAA", "PBM E-score": -0.0338}
{"sequence": "CGGCTTGA", "PBM E-score": -0.0374}
{"sequence": "CAACGCCC", "PBM E-score": -0.158}
{"sequence": "AGTGTAGG", "PBM E-score": 0.0837}
{"sequence": "ACTCAAGT", "PBM E-score": -0.0907}
{"sequence": "GGGCTACA", "PBM E-score": -0.161}
{"sequence": "TGCGGACA", "PBM E-score": 0.0503}
{"sequence": "CACAGAGC", "PBM E-score": 0.0408}
{"sequence": "AGATTTTG", "PBM E-score": -0.0437}
{"sequence": "GACATAAC", "PBM E-score": 0.00863}
{"sequence": "CACCCGCA", "PBM E-score": -0.0465}
